# ± gives the standard deviation of the averaged measurements. This is one part of the list.
# Tested on: PfAP2-LT AP2 domain (GST-tagged)
# Assay: gcPBM binding intensity (ln(normalized median fluorescence intensity)); higher = stronger DNA binding
# Procedure, shortened: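 GST-fused DNA-binding domains of P. falciparum, expressed in E. coli, were applied at about 25 μg on average for 1 h to an Agilent 4 × 180k array of primer-extended double-stranded 36-bp intergenic genomic probes and negative controls. Binding intensity is the highest Masliner-normalised natural-log median intensity across replicate spots of either probe orientation, measured with Alexa488 anti-GST antibody and a 488 nm scan.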
row,Sequence,gcPBM binding intensity (ln)
1,ATTCATAAAAGTTGTACATGCAATTTTTTTTTTTTT [TGCATGCA_site270],8.58 ± 0.42
2,ATTTTGTTATGAAACACACACATATATATATATATA [CACACA_site3650],9.67 ± 0.31
3,TAATTTCTTATGTAGTGTACAAATAATATATGATAT [XGTACX_site597],8.61 ± 0.32
4,TAATCGGTAATATTAACACACACATTTATATATATT [CACACA_site8274],9.28 ± 0.31
5,AATATCTGTATATCCACACACATATATATATATATA [CACACA_site4987],9.73 ± 0.11
6,ATTATTCATATAACACGTACAAAACGAAAAACAAAT [XGTACX_site3873],8.97 ± 0.35
7,GTATTAATAAAAATACGTACTTATTATTTATAATAA [XGTACX_site7672],8.38 ± 0.48
8,AATATCACCACATTGTTACTATAATATATAAAAAAG [XGTACX_negctrl_site384],8.62 ± 0.41
9,AAAAGGAGAAATATTGCACACGTGCAAAATGGTATG [CACACA_site4300],9.2 ± 0.42
10,TTTACTCCTACAACATGTACATAAAATAAATTTTTT [XGTACX_site5010],8.55 ± 0.41
11,ACATGTTAACTAAATGTACACACCTATGTTGATGTA [CACACA_site1821],9.15 ± 0.24
12,TTATTTACAACTTTTTTTTTTTTATTTTATTTTATT [CACACA_negctrl_site341],8.56 ± 0.52
13,GAAATGTGGTAATATACACACACGCATATATTTATA [CACACA_site6285],9.29 ± 0.3
14,TTTGAACTCTTAAGTGGTACAAATTTGTATTTTCTC [XGTACX_site2322],8.78 ± 0.34
15,ACATAGCAATGTTTCACACACAAGAAAAAATACAAT [CACACA_site2379],9.33 ± 0.47
16,AATGGAATATATATTTGTACATAAATATTATAATAA [XGTACX_site8524],8.7 ± 0.42
17,TATAAATAAAAATATACACACTGTATTATTGTAATA [CACACA_site7721],8.74 ± 0.44
18,TATTATTATTATTACACACACAATTATATTTACCCC [CACACA_site503],9.45 ± 0.36
19,TCGTGGTTTTAATAAGTGCGCAATTTAAATATTTTT,8.96 ± 0.38
20,GTATATATATATATATATATATATTTTTATTTATTT [CACACA_negctrl_site589],9.21 ± 0.19
21,AATATAAGTAGTACAGTGCATATAATAATTAGAAGA [GTGCAC_site9485],9.06 ± 0.46
22,CCATAAAAAGGATACACACACACACGCACATATATA [CACACA_site6550],9.92 ± 0.11
23,TTGATTTATATTTAATGTACATTTTTACAGAAAATT [XGTACX_site2747],8.45 ± 0.49

row,Sequence,gcPBM binding intensity (ln)
1,GATTAAACACAAAGAAGTACGGACATAAAAAAAAAA [XGTACX_site3686],8.88 ± 0.56
2,TAAAAATATTAATAAACACACAATGAGATATTGAAT [CACACA_site3153],8.82 ± 0.39
3,ATATATATATTATATGCACACGTTAAAATTTCATAT [CACACA_site4552],8.98 ± 0.28
4,TATTATAATATTTATACACACATAATTTTGATAAAT [CACACA_site583],8.68 ± 0.4
5,TGATATATTTATATTACACACTTAAACGAAAAAAAA [CACACA_site3021],8.59 ± 0.37
6,AAATATAAAATTTATTGTACATTATATATAATATAT [XGTACX_site1416],8.54 ± 0.38
7,ATATTATATATATAGGTGCGAGTATTTTATAAATAT [GTGCAC_site9889],8.76 ± 0.31
8,TATACACCCGGACACACACACATATATATATATATA [CACACA_site5030],10.36 ± 0.028
9,TAAGTATACACATACACACACACACTAATAAAAAAA [CACACA_site8035],10 ± 0.26
10,TTCTTCTGTTTTATTACACACCATTTTGCGTATACA [CACACA_site2070],9.28 ± 0.38
11,ACATATTATATAACTCGTACTCGTAAAATATGTTGT [XGTACX_site2240],9.07 ± 0.3
12,GTCATAAATGTACGCACACATACATAAACATATACA [CACACA_site650],9.26 ± 0.31
13,GTTCTTTTATATATTTGTACATATTTATATATATTG [XGTACX_site4078],9.08 ± 0.52
14,CATTCTTGTTTAAAAAGTACATAAACATATATATAT [XGTACX_site1751],8.53 ± 0.37
15,AAAAAAAATAAAGAGAAAAAAAAAAGAAAATTATAT [GTGCAC_negctrl_site550],8.46 ± 0.47
16,TAAATTAATATGTATCGTACAATATATAAAACGATG [XGTACX_site2818],8.74 ± 0.38
17,ATTTAAATAAGATATACACACAAGTAGAAGACTATG [CACACA_site806],9.04 ± 0.38
18,TTTTCGATGTTGGTAGGAAGTTTGGTACACGTAGTA [TGCATGCA_negctrl_site145],8.63 ± 0.45
19,CGTATTTATAGAATTACACACCATATTGTAATTATT [CACACA_site7722],8.82 ± 0.38
20,TTTTTTTTGTAATACGCATGCTAAAAATATTTATAA [TGCATGCA_site656],8.45 ± 0.45
21,GTGTTTTTATTATTTTGTACACATATATTTAATATT [XGTACX_site2109],9.17 ± 0.49
22,TTGTCCCTATAAGGGGAACACACATAAATGAATATA [CACACA_site8250],8.7 ± 0.49
23,ATAATGTTTTATAATACACACATTATGTATATAAAT [CACACA_site4077],8.94 ± 0.41

row,Sequence,gcPBM binding intensity (ln)
1,AAAACTATTTGTAAAAGTACATAATAAATAAATAAA [XGTACX_site7922],8.75 ± 0.42
2,GAATGTCTAATTTTGATGCACACTTTTGTGCAATTA [CACACA_site2902],8.79 ± 0.41
3,AAAATTCATATATACACACACGCACATATATATATA [CACACA_site90],9.71 ± 0.21
4,CAAAAAATTCAACACACACACACACCGATAAATAAA [CACACA_site8330],10.11 ± 0.071
5,TTATATTATTCGTGTGTGCACGATATTTCATAATTG [GTGCAC_site9767],9.07 ± 0.31
6,TTTCCTTATAAAAATACACACAAACTTTAATTAAAA [CACACA_site7710],8.48 ± 0.4
7,TATTACACATATTATACACACATATATTATAGATAT [CACACA_site6839],9.12 ± 0.36
8,TTTCTTTTTAAATGCTGTACAAAGGGTGACGTTAAA [XGTACX_site4724],8.43 ± 0.38
9,TATTCCAAATTTACTAGTACATAATCCATCCGATAA [XGTACX_site1558],8.53 ± 0.44
10,AATAGAATGTAATATACACACATATATTTCTCTTTT [CACACA_site2630],8.94 ± 0.43
11,TATATATATATATATTGTACACATTGTGTTTAAATA [XGTACX_site5104],9.24 ± 0.33
12,TTGTAACCTATGCACGCACACAAGAAAAAAACAAAA [CACACA_site3775],9.22 ± 0.46
13,TTTTTATTGTTAATTTTAATTTTTTTTTTTTAATGC [CACACA_negctrl_site162],8.3 ± 0.51
14,ATATTTTTTAGTAAGACGAAATAAATAAATCTTTAT [CACACA_negctrl_site1778],8.17 ± 0.42
15,TTTTCTTTTTTTTTTGTGCACATAATATATAATTAT,8.88 ± 0.52
16,TATATATATATAAGCACACAAACAAAAAAAATTATA [CACACA_site3897],9 ± 0.41
17,ATTGAATATGTAAATGCACACCAAAAAAAAAAAAAA [CACACA_site9189],8.96 ± 0.45
18,TTTTTCCTATTTTTAGTGCACATATAAATAAATAAA [GTGCAC_site9821],8.31 ± 0.45
19,ATTTTTTATATTTAGTGTACATGTTTTAATTTATAA [XGTACX_site7512],8.76 ± 0.43
20,ATAACTTTATTCAGTTTGCACTTTTATAACAAAAGA,8.6 ± 0.43
21,CTTATATAATTCGATAGTACATATTTTTATATATAT [XGTACX_site4045],8.64 ± 0.51
22,TAAACATACCTATACACACACACACGCACACGCACA [CACACA_site6372],10.22 ± 0.042
23,GTTCCAGGCATTCGTGCGCACAAATAGAAACAATTA [GTGCAC_site9824],9.06 ± 0.56

row,Sequence,gcPBM binding intensity (ln)
1,TAAAAATTGCACAGAAGTACAGTATAAATATATATA [XGTACX_site3421],8.74 ± 0.44
2,TTTCTATATTGGCATACATGCAAGAACGAAAAGATT [TGCATGCA_site117],8.64 ± 0.37
3,ATAATATATGAGCAATGTACATATTTCTCATTGCAC [XGTACX_site2253],8.89 ± 0.42
4,CATTCAATTGAAAAATGTACAAAAATAAACATATGC [XGTACX_site1663],8.99 ± 0.44
5,TAAGTATACGCATACACACACACACCCAAAAAAAAA [CACACA_site425],9.91 ± 0.21
6,AATAGGAAGACTATTTTGTATTTGATTTTTTATTCC [GTGCAC_negctrl_site453],8.86 ± 0.49
7,TCTTTTTTTTTTTTTTTTTTTTTTTATTTATTCATA [CACACA_negctrl_site1827],8.48 ± 0.58
8,AAAAGGTATCCACATACGCACACCAAAAAAAAAAAT [CACACA_site347],9.16 ± 0.64
9,ATACAACAATGTGAATTATATATGGATGGAGAATGA [GTGCAC_negctrl_site148],8.98 ± 0.54
10,ACGTAAGCGAATAAAAGTACATATATTAAAAAAAAA [XGTACX_site4458],8.76 ± 0.65
11,TTCTTAAGGAACGAACGTACAGAATAAAAAGTAAAA [XGTACX_site4294],8.66 ± 0.59
12,GTTGAACATATATGCACACACATAAAATAAAAAAAA [CACACA_site2413],9.42 ± 0.44
13,TTGTGAAACATCAAGAAAAAGAAATAATAAAAAGAA [GTGCAC_negctrl_site38],8.64 ± 0.63
14,TTATATTAATATATATGTACATATATTTTTTTTATA [XGTACX_site6981],8.61 ± 0.61
15,ATATATATGTTTTATAGTACACACATAAATGGACAT [XGTACX_site4538],9.06 ± 0.3
16,CTATTATTTTTAAATTGTACTATAACAAAATGTATA [XGTACX_site3916],8.47 ± 0.36
17,TTTATATTTATATAAATATAATATATATGAATTATA [XGTACX_negctrl_site466],8.12 ± 0.4
18,AAATAAATCTATAATACACACAAAAATATAAAATGC [CACACA_site7700],9.21 ± 0.39
19,CTTCAATATATTCTTACACACTTAAAAAAAAAAATA [CACACA_site4287],8.49 ± 0.4
20,TTAGATATGTGTAAGGGTACAAAATACTTTACATTT [XGTACX_site8204],8.71 ± 0.48

# Reference: the supplement of paper PMC11417369
